Source: PubChem BioAssay (Tox21)
Several values for one entry are separate records, joined by “and”; a condition that tells them apart may be missing. Equal entries are not always repeated. The inconclusive results got no clear call from the source; some entries with a clear call stand among them for comparison. Where a call stands in place of a potency, no number is given. Potencies of inconclusive entries are doubtful fits and often do not repeat. Activity calls are given as the source filed them. Unless noted, the call rests on the fitted dose curve; in most records, active means well fitted curve in the direction sought with a large enough effect in the repeat runs; inconclusive means weak or mixed curves; inactive means no such curve, though single readings can be large; an effect the other way counts as inactive or inconclusive.

System: not listed separately
Assay: qHTS assay to identify small molecule HDAC inhibitors (AID 1259364);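 further: wild-type HCT-116 cells with endogenous class I/II HDAC activity; nearly all actives have a fitted effect of over 45% in size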
Conditions: HCT-116 HDAC-Glo I/II luminescence, 2 h; series mostly up to 92.4 µM
Outline: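 Screening used wild-type human colon HCT-116 cells incubated overnight, dosed with compounds for 2 hours, and assayed with a homogeneous luminogenic HDAC I/II reagent for 30 minutes at room temperature.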
Potency means the concentration at half of the fitted maximal effect; tags describe the fitted curve by direction and shape or compound fluorescence and quenching.

Row | SMILES | Potency
1 | CC(=O)c1ccc(OCC(=O)N2CCCCC2)cc1 | active: 13.3 µM
2 | C=CCN(CC=C)CC=C | inactive
3 | Cc1ccc(C(=O)O)o1 | inactive
4 | [O-]/[N+](=N\O)c1ccccc1 | inconclusive: 48.1 µM [inhibitor, partial curve] and inconclusive: 19.3 µM [inhibitor, full curve]

System: not listed separately
Assay: qHTS assay to identify small molecule HDAC inhibitors - cell viability counter screen (AID 1259365); further: nearly all actives have a fitted effect of over 50% in size
Conditions: HCT-116 viability, CellTiter-Glo ATP luminescence, 2 h; series mostly up to 92.4 µM
Outline: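 To flag cytotoxic hits, 1,500 wild-type HCT-116 cells per well, plated the day before, receive test compounds for 2hr at 37 C before CellTiter-Glo reagent and a luminescence read.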

Row | SMILES | Potency
5 | O=C1O[C@H](CO)[C@@H](O)[C@H](O)[C@H]1O | inactive
6 | O=C(O)c1cc(C(=O)O)cc(S(=O)(=O)O)c1 | inactive
7 | O=C1CC(c2ccc(Cl)cc2)CC(=O)N1 | inactive
8 | Oc1cccc2ccccc12 | inconclusive: 70.4 µM [rising, single point]
9 | O=[N+]([O-])c1ccc2ncccc2c1 | inactive
10 | CC(C)(C)S | inactive
11 | CCCc1ccc(N)cc1 | inactive
12 | Cc1ccc(C(=O)O)o1 | inactive
13 | OCC(F)(F)F | inactive
14 | CSSc1ccoc1C | inactive
15 | O=[N+]([O-])c1cccc(C(F)(F)F)c1 | inactive
16 | NCC1CCCC(CN)C1 (stereo not drawn) | inactive

System: not listed separately
Assay: qHTS assay to identify small molecule agonists of the sonic hedgehog signaling (Shh) pathway - cell viability counter screen (AID 1259366); further: nearly all actives have a fitted effect of over 50% in size
Conditions: NIH/3T3 Gli1-Luc viability, CellTiter-Fluor, 24 h; series mostly up to 92.4 µM
Outline: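 Fluorescence from CellTiter-Fluor reports live cells in this counter screen. NIH/3T3-derived Gli1-Luc reporter cells receive test compounds for 24hr at 37C; reagent goes in at 23hr.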

Row | SMILES | Potency | viability change, negative = cytotoxic
17 | O=C(O)CN1C(=O)c2cccc3cccc(c23)C1=O | inactive | –
18 | C=CCCCC | inactive | –
19 | CCC(C)[O-].CCC(C)[O-].CCOC(=O)/C=C(/C)[O-].[Al+3] | inconclusive: 30.6 µM [rising, partial curve] | –
20 | CC(=O)Nc1cccc(N)c1 | inactive | –
21 | CC1=C(C(=O)O)N2C(=O)[C@@H](NC(=O)[C@H](N)c3ccc(O)cc3)[C@H]2SC1 | inactive | –
22 | OCCCCCO | inactive | –
23 | CCCCCCCCCCCCCCCCCC(=O)OCCCCCCCCCCCCCC(C)C | inactive | –
24 | CCOc1ccc(NC(=O)CC(C)O)cc1 (stereo not drawn) | inactive | –
25 | Nc1nc(N)nc(-c2cc(Cl)ccc2Cl)n1 | inactive | –
26 | CCOCCOCCOCC | inactive | –
27 | NC(=O)c1ccc([N+](=O)[O-])cc1 | inactive | –
28 | N[C@H](C(=O)O)c1ccc(O)cc1 | – | inactive: -2.17% [at 19 µM]
29 | CO[Si](OC)(OC)OC | inactive | –

System: not listed separately
Assay: qHTS assay to identify small molecule antagonists of the sonic hedgehog signaling (Shh) pathway (AID 1259369; calls by dose curve; further: nearly all actives have a fitted effect of over 45% in size)
Conditions: NIH/3T3 Gli1-Luc reporter, Shh antagonist, luminescence 24 h; series mostly up to 92.4 µM
Outline: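 NIH/3T3 stable Gli1-Luc clone, 2,000 cells/well, 4hr settle; cpd + conditioned medium 24hr; Luc reagent 30min RT; luminescence.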

Row | SMILES | Potency
30 | CN1CCN(C2=Nc3cc(F)ccc3Cc3ccccc32)CC1 | inconclusive: 5.96 µM [inhibitor, full curve]
31 | O=c1cc(O)c(Cl)c[nH]1 | inconclusive: 0.075 µM [inhibitor, single point]
32 | CN(C)CCOC(c1ccc(Cl)cc1)c1ccccn1 (stereo not drawn) | inconclusive: 33.5 µM [inhibitor, partial curve, poor fit]
33 | Cc1ccc(C(=O)O)o1 | inconclusive: 6.14 µM [inhibitor, single point] and inactive
34 | CC(=O)N[C@@H](Cc1ccc(O)cc1)C(=O)O | inactive
35 | OCC(F)(F)F | inconclusive: 57.4 µM [inhibitor, partial curve, poor fit]
36 | [O-]/[N+](=N\O)c1ccccc1 | inactive
37 | O=[N+]([O-])c1cccc(C(F)(F)F)c1 | inconclusive: 0.615 µM [inhibitor, single point]

Molecular target: Estrogen receptor beta (Homo sapiens) (UniProt Q92731)
Chain of UniProt Q92731 (Q92731 whole entry, looked up): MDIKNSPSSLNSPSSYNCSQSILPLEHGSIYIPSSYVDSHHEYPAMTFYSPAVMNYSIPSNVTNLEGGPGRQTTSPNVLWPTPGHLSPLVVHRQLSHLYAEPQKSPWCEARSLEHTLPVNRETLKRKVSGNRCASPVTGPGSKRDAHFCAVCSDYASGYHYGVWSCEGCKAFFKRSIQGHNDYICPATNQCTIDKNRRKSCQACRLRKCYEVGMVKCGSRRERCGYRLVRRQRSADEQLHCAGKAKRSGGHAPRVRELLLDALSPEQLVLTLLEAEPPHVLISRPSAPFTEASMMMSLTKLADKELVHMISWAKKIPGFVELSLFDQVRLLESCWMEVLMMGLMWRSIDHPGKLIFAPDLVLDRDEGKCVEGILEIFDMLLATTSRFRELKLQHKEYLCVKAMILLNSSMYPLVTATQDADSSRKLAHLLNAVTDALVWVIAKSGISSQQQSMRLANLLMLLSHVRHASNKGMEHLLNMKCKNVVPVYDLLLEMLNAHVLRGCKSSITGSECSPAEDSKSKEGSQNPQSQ
Assay: qHTS assay to identify small molecule agonists of the estrogen receptor beta (ER-beta) signaling pathway (AID 1259377; active means well fitted activation curve with a large enough effect in the signal ratio in the repeat runs, not every such curve was filed as active; inconclusive means weak or mixed curves, or effect the other way; the % refers to the signal ratio)
Conditions: ER-beta-UAS-bla HEK293T, beta-lactamase FRET ratio, 16 h; activation: at 92.4 µM (top of the series) unless noted
Outline: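 Screening used GripTite ER-beta-UAS-bla cells held in 2% charcoal-stripped FBS medium. After overnight (16 hr) compound incubation at 37C, beta-lactamase activity was detected with a FRET substrate by fluorescence.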

Row | SMILES | activation | Potency
38 | CC(=O)C(=O)CC(C)C | inconclusive: 5.31% | –
39 | O=C(c1ccccc1)c1ccc(O)cc1 | – | active: 12.3 µM
40 | O=C(O)CNC(=O)c1ccccc1I | – | inactive
41 | CN(C)C(C)(C)CO | – | inconclusive: 8.63 µM [activator, partial curve, poor fit]
42 | CCCOc1ccc2c(c1)CC[C@@H]1[C@@H]2CC[C@]2(C)C(OC)CC[C@@H]12 (stereo partly drawn) | inconclusive: 4.94% [at 42.5 µM] | –
43 | NCC1CCCC(CN)C1 (stereo not drawn) | – | inactive
